Measured values published in publication PMC4336329 (PLoS ONE, 2015).
In all, about 310,000 compounds went through this assay and about 14,000 (4.5%) showed an effect of 50% or more. Effects have a minus sign here. This is one part of the list.

target: human ether-à-go-go-related gene (hERG) potassium channel (human, UniProt Q12809); test: primary screen, population patch clamp on CHO cells stably expressing hERG
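Note: peak tail current of the secondary pulse compared with the same well before compound.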

Sequence of human ether-à-go-go-related gene (hERG) potassium channel (Q12809 whole entry, looked up): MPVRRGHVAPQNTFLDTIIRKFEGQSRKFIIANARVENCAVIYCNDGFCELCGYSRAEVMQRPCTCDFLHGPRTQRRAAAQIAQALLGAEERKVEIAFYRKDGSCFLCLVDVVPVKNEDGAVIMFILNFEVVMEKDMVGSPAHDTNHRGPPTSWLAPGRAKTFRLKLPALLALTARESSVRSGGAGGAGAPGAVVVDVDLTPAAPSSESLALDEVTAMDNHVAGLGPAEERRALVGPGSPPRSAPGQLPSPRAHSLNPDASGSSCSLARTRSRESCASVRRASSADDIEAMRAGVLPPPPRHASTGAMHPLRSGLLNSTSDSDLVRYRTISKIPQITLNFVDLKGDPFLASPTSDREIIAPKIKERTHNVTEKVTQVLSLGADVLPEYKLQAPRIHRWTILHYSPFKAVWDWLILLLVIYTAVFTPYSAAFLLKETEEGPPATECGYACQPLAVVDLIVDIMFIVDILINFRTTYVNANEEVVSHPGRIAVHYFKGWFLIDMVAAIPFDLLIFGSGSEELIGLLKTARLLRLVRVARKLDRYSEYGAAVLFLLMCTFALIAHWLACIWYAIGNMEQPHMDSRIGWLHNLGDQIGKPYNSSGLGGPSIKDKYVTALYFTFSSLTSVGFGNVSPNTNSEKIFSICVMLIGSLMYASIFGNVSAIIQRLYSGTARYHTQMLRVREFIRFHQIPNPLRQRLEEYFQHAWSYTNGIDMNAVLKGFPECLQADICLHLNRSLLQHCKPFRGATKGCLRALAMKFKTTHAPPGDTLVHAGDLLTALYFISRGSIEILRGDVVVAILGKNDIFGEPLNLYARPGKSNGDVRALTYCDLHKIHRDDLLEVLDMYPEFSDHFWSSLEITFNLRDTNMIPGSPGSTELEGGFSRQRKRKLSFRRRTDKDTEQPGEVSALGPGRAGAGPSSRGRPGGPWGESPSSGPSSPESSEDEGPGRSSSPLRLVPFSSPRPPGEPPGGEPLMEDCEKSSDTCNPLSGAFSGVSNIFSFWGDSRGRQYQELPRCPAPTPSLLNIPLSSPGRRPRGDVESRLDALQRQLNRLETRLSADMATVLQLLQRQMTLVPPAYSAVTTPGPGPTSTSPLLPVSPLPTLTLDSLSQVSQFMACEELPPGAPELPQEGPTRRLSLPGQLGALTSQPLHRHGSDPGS

SMILES	hERG current change (%, negative = inhibition) at 10uM [%]
COc1ccc(-c2nc(CSCC(=O)N3CCN(C4CCCCC4)CC3)c(C)o2)cc1OC	-34.4
Cc1cccc(S(=O)(=O)N2CN(Cc3ccco3)c3nc4ccccc4nc32)c1	-16.7
COc1cc(-c2nnc(SCC3(c4ccc(Br)cc4)OCCO3)o2)cc(OC)c1OC	-9.92
O=S(=O)(NCc1ccccc1F)c1cccc(S(=O)(=O)N2CCOCC2)c1	-14.6
Cc1noc(C)c1S(=O)(=O)N1CCCC(C(=O)NC2CCCCC2)C1 (centres unmarked)	13.5
CCCN(C(=O)C1CCN(S(=O)(=O)c2ccc(OC)c(OC)c2)CC1)C1CCS(=O)(=O)C1 (centres unmarked)	13.4
Cc1ccc(S(=O)(=O)N2CCN(C(C)C(=O)N3CCCc4ccccc43)CC2)cc1 (centres unmarked)	-18.9
Cc1ccc(-c2nc(N3CCOCC3)sc2C(=O)N2CCOCC2)cc1	-4.14
CCN1C(=O)c2cccc3c(NC(=O)C(C)(C)C)ccc1c23	1.71
CC1(c2ccccc2)NC(=O)N(CC(=O)Nc2ccccc2C(=O)NC2CC2)C1=O (centres unmarked)	-22.5
CC(C)(C)c1ccc(C(=O)Nc2ccc(C(=O)N3CCOCC3)cc2)cc1	-20.6
C/C=C/CSc1nc2c(c(=O)[nH]c(=O)n2C)n1CCC	-24.6
O=C(NCCN1CCCCCC1)c1ccc(N2CCCC2=O)cc1	-11
COCCCNC(=O)Cn1nnc(-c2ccc(NC(=O)c3ccccc3OC)cc2)n1	6.89
COc1ccc(Br)cc1S(=O)(=O)N(CC(=O)N1CCN(C)CC1)c1ccccc1	-22.6
COc1c(C)cc(C(=O)C2CCCN(Cc3cccc(O)c3)C2)cc1C (centres unmarked)	-23.9
CN(CCc1cnn(C)c1)Cc1nc(Cc2ccccc2)no1	11.7
Cc1cc(C)n(/N=C/c2cccc([N+](=O)[O-])c2)c(=O)c1	1.68
CC(C)Oc1ccc(C(=O)N/N=C/c2ccc(-c3ccc(S(=O)(=O)Nc4ncccn4)cc3)o2)cc1	9.83
CC1=C(C(=O)NC2CCCCC2C)C2(CCC(C)CC2)OC1=O (centres unmarked)	-12.4
CCCCOc1ccc(C(=O)C(CN2CCOCC2)c2ccccc2)cc1 (centres unmarked)	-1.42
O=C(CCCN1C(=O)c2ccccc2C1=O)N1CCC(c2ccccc2)C1 (centres unmarked)	-58.6

SMILES	hERG current change (%, negative = inhibition) at 10uM [%]
O=C(NCC1CCCO1)c1cc2c([nH]c3ccccc32)c(-c2ccc(F)cc2)n1 (centres unmarked)	-3.16
COc1c(C)cc(Br)cc1C(=O)Nc1cccc(-c2nc3ncccc3o2)c1	-7.52
Cc1cccc(-c2noc(C(C)NC(=O)c3ccco3)n2)c1 (centres unmarked)	-11.3
Cc1ccc(-n2c(SCC(N)=O)nnc2-c2ccccn2)cc1C	8.79
COc1cccc(C(O)c2cnc(C(C)C)n2C)c1 (centres unmarked)	6.71
COc1cc(C)c(S(=O)(=O)N2CCOCC2)cc1C(C)C	-10.2
CCOC(=O)c1c(NC(=O)CSc2nc3ccccc3c(=O)n2-c2ccc(F)cc2)sc(C(C)=O)c1C	12.5
Cc1ccc(S(=O)(=O)CCSc2nccn2C)cc1	0.605
CCOCCCNS(=O)(=O)c1ccc(Br)cc1	18
O=C(COC(=O)c1cc(=O)[nH]c(=O)[nH]1)Nc1cccc(S(=O)(=O)N2CCCCC2)c1	16.7
O=C(O)c1ccc(Nc2cccc(F)c2)c([N+](=O)[O-])c1	17.7
CSc1nc2c(C)c(C)c(C)c(C)c2[nH]1	5.03
Cn1c(=O)c2cn(-c3ccc4c(c3)OCCO4)cc2n(C)c1=O	11.3
CCOC(=O)C1=C(C)NC(=O)C(C(N)=O)C12CCCC2 (centres unmarked)	30.1
CC(=O)N1CCN(C(=O)c2cccc(S(=O)(=O)Nc3ccc(C)cc3)c2)CC1	23.4
CCCOc1ccccc1OCC(=O)Nc1ccc(S(=O)(=O)N2CCCC2)cc1	-16.2
O=C(/C=C/c1ccc(OC(F)F)cc1)Nc1cccc(S(=O)(=O)NC2=NCCCCC2)c1	-39.2
Cc1cc(C)cc(NC(=O)CN2CCC(C(=O)c3ccccc3)CC2)c1	-48.6
C=CCn1c(CCc2ccccc2)nnc1SCC(=O)OC	11.9
Cc1cc(C)c(S(=O)(=O)N2CC=C(c3ccccc3)CC2)c(C)c1	7.52
COc1ccc(CNC(=O)Cc2nn(C)c(=O)c3ccccc23)cc1	-14.2
COc1ccc(C(=O)N2CCN(Cc3nc(CC4CC4)no3)CC2)cc1	-30.7
